# Data: the supplement of paper PMC10338343
# ± gives the standard deviation. Only a part is listed here, and it is no random draw.
# Test system: MIWI (PIWIL1) piRISC loaded with piRNA #1 (30 nt)
# Experiment: pre-steady-state target cleavage rate (min^-1); MIWI and MILI are mouse PIWI proteins and EfPiwi is from a freshwater sponge; tags in brackets are library labels; higher = faster piRNA-guided slicing of the target
# Conditions: guide: piRNA #1 5'p-UGAGGUAGUAGGUUGUAUAGUAUCCAGAGG; auxiliary factor: 500 nM mouse GTSF1
# How it was run: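 The pre-steady-state cleavage rate came from a burst-and-steady-state fit to pooled data from three Cleave-'n-Seq trials, in which uncleaved targets were sequenced and normalised to depth and to weakly complementary targets. Each reaction held 0.1 nM transcribed, DNA-blocked target RNA library and 1 nM active affinity-purified piRISC carrying one synthetic guide, with or without 500 nM GTSF1 partner protein, in HEPES–potassium acetate buffer at 33 °C for 0–8 or 0–960 min. k3 was capped at 0.0001 min^-1.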
row,Sequence,pre-steady-state target cleavage rate
1,GGAGACCAAACUAUACAACCUACUAGCUCA,0.465 ± 0.071
2,GGAGACCUAUCUAUACAACCUACUACCUCG [g2:g20:cont:t1G],0.836 ± 0.058
3,GGUCUGGAUACUAUAAACCUACUACCUCA,0.916 ± 0.11
4,GGAGACCAUACUAUACAACCUACUACUCUCA,1.8 ± 0.12
5,GGAGACCUUACUAGUACAACCUACUACCUCA,0.514 ± 0.075
6,GGAGUGGAUAGUAAACAACCUACUACCUCA,0.425 ± 0.036
7,GGACUGGAAACUAUACAACGUACUACCUCA,0.622 ± 0.067
8,GGAGACCAUACUAUACAACCUAGUACCUCA,0.456 ± 0.03
9,GGAGACCUAUGAUAUGAACCUACUACCUCC [g2:g14:cont:t1C],< 0.0001
10,GCUCUGGAUACUAUAGAACCUACUUCCUCA,0.152 ± 0.034
11,GGAGACCAUACUAUACAACCUACUUCCUGA,0.32 ± 0.049
12,GGAGACCUAACUAUACAUCCUACUUCCUCA,0.0847 ± 0.025
13,GGACAGGAUACUAUACAAGCUACUACCUCA,1.19 ± 0.055
14,GGUCUGGAUUCUAUAGAACCUACUACCUCA,0.979 ± 0.064
15,GGAGUGGAUAUCUAUACAACCUACUACCUCA,0.831 ± 0.053
16,GGACUGGAUACUAUACUAGCUACUACCUCA,0.453 ± 0.049
17,GGUCUGGAAACUAAACAACCUACUACCUCA,1.67 ± 0.12
18,GGAGAGGAUACUAUACAACCUACUACCUCCA,0.913 ± 0.048
19,GCUCUGGAUACUAUACAACCUUCUUCCUCA,0.305 ± 0.026
20,GGAGACGAUACUAAACUACCUACUACCUCA,1.05 ± 0.083
21,GGACUGGAUAGUAUACAACCUACUACGUCA,0.356 ± 0.044
22,GGACUGGCUACUAUACAACCUACUACCUCA,1.7 ± 0.12
23,GGUCUGGAUACUAUACAACGUACUACCUGA,0.352 ± 0.045
24,GGAGACCUAUGAUAUCAACCUAGUACCACA,< 0.0001
25,GGAGAGGAUACUAUACAACCGACUACCUCA,0.0128 ± 0.0024
26,GGAGACCUUACUAUUCAACCUUCUACCUCA,0.323 ± 0.028
27,GGAGACCUAACUAUAGAACCUACUACCUCA,0.748 ± 0.076

row,Sequence,pre-steady-state target cleavage rate
1,GGAGAGGAUACUUUACAACGUACUACCUCA,0.182 ± 0.023
2,CCUCUGGAUACAUUACAACCUACUACCUCA,1.61 ± 0.1
3,CCUCUGCAUACUAUACAACCUACUACCUGA,0.984 ± 0.11
4,GCUCUGGAUACUAUACAUCCUACUACGUCA,0.929 ± 0.066
5,GGUCUGGAUACUAAACAACCUACUACCUCA,1.81 ± 0.11
6,GGAGACCAUACUAUACAAGCUAGUACCUCA,0.379 ± 0.025
7,GGAGACCUAUCUAUAGAAGCUACUACCUCA,0.175 ± 0.024
8,GGAGAGGAUACUAUACAACCUCCUACCUCA,0.964 ± 0.037
9,CCUCUGGAUACUAUACAACCUACUUGCUCA,1.1 ± 0.12
10,GGAGACGAUACUAAACAACCUACUACCUCA,1.57 ± 0.1
11,CCUCUGGAUACUAUACAACCUACUACUCA,1.76 ± 0.15
12,GCUCUGGAUACUAUACAACGUUCUACCUCA,0.146 ± 0.015
13,GCUCUGGAUACUAUACAACCUACUACCCA,0.801 ± 0.084
14,GGAGACCUAACUAUACAACCUACUAGCUGA,0.0256 ± 0.01
15,GGAGAGGAUUCUAUAGAACCUACUACCUCA,1.19 ± 0.056
16,GGAGACCUAUGAAUACAACCUACUACCCCA,0.00319 ± 0.0027
17,GGAGACCUAUCUAUACAAGCUACUACCUCA,0.446 ± 0.029
18,GGACUGGUAACUAUACAACCUACUACCUCA,1.21 ± 0.13
19,GGAGUGGAUACUAAACAACCUACAACCUCA,0.34 ± 0.036
20,GGAGAGGAUUCUAUACAAGCUACUACCUCA,0.788 ± 0.033
21,GGUCUGGAUACUAUACAACCUACUCACCUCA,0.819 ± 0.096
22,GGAGUGGAAACUAUACAACCUACUAGCUCA,0.0717 ± 0.018
23,GGAGACGUUACUAUACAUCCUACUACCUCA,1.35 ± 0.092
24,GGAGACGAUACUAUACAACCUACCUACCUCA,1.2 ± 0.064
25,GGAGUGGAUACAAUACAAGCUACUACCUCA,0.789 ± 0.036
26,CCUCUGGAUACUAUACAUCCUACUACCUGA,0.868 ± 0.11
27,GGUCUGGAUACAAUACAACGUACUACCUCA,0.837 ± 0.058
